The source of these data is PubChem BioAssay (NCATS).

The list shows a part of the results. Further columns of the screen follow, without active or inactive calls. For some of these results: Compounds called inactive in the main read-out are mostly missing here. Words in brackets tell the shape of the fitted curve; partial curves, single points and poor fits give uncertain potencies.

As usually defined, the AC50 is the concentration giving half of the maximal activity seen.

The nature of assay [1]: qHTS drug screen for cell cycle checkpoint inhibitors in PARPi-resistant BRCA-mutant ovarian cancer cell lines. (AID 1963452). As to conditions: PEO1/OlaR viability, CellTiter-Glo luminescence, 96 h. The procedure, abridged:
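PEO1, PEO4 and PEO1/OlaR ovarian cancer cells, 600 per well, exposed 96 h at 37C to a dilution series. Viability read by CellTiter-Glo luminescence, normalized to DMSO and empty wells; activity summarized as Z-AUC.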
A general note: In qHTS, concentration-response curves come from the screen itself.

Assay [2] can be described thus: qHTS for identification of novel therapeutic agents for treatment of microphthalmiaassociated transcription factor (MiT) renal cell carcinoma (RCC) (AID 1963991).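 For z-score: curves scaled with 100% = DMSO viability and 0% = empty wells.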 Conditions: CellTiter-Glo, 48 h; for z-score: stronger effect = lower value. In short, it runs like this: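 UOK109/UOK124/UOK145 (TFE3 fusions, three partners); 500 cells/well; MIPE v4.0, 1912 cpds, 11 conc.; 48 h, 37 C; CellTiter-Glo, 15 min RT; lum. Norm.: DMSO 100%, empty 0%.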

[3] abbreviates: measured here: PEO1 parental viability.
The mark [4] stands for this setting: TFE3-RCC UOK109 viability, measured here: UOK109 Z-AUC.
The mark [5] stands for this setting: TFE3-RCC viability, measured here: UOK124 Z-AUC.
Setting [6] is: TFE3-RCC viability, measured here: UOK145 Z-AUC.
Where [7] appears, read: TFE3-RCC viability, measured here: UOK145 cell viability.
Where [8] appears, read: TFE3-RCC viability, measured here: UOK124 cell viability.
Tags give direction and shape of the fitted curve.

Take `Cc1cc(C(C)(C)C)cc(C)c1CC1=NCCN1`: the AC50 in assay [1] (setting [3]) is 24.5 µM [falling, single point]; in assay [1] (measured here: PEO4 viability) it was 24.5 µM [falling, single point]; in assay [2] (setting [7]), 20.9 µM [falling, single point]. In addition, the z-score in assay [2] (setting [4]) turned out to be 0.193; in assay [2] (setting [5]), 0.744; in assay [2] (setting [6]) it was 2.25.

On to `Cn1cnc2c(F)c(Nc3ccc(Br)cc3F)c(C(=O)NOCCO)cc21`, for which the AC50 was 0.616 µM [falling, full curve, poor fit] in assay [1] (setting [3]); 2.19 µM [falling, full curve] in assay [1] (measured here: PEO4 viability); 0.0662 µM [falling, partial curve, poor fit] in assay [2] (setting [8]). In addition, the z-score in assay [2] (setting [4]) is -1.79; in assay [2] (setting [5]) it was 0.0443; in assay [2] (setting [6]), 0.561.

For the compound `Nc1ncnc2c1nc(Cl)n2[C@@H]1O[C@H](CO)[C@@H](O)[C@@H]1O`, the AC50 is 13.8 µM [falling, partial curve] in assay [1] (setting [3]); 5.49 µM [falling, full curve] in assay [1] (measured here: PEO4 viability); 26.4 µM [falling, single point] in assay [2] (setting [7]). For the same compound, the z-score in assay [2] (setting [4]) was determined as 0.358; in assay [2] (setting [5]), 0.474; in assay [2] (setting [6]), 0.372.

Consider `CCOC(=O)C1=C(C)NC2=C(C(=O)CC(C)(C)C2)C1c1ccc(-c2ccccc2)cc1` (configuration not stated), for which the AC50 is 17.4 µM [falling, single point] in assay [1] (setting [3]); 21.9 µM [falling, single point] in assay [1] (measured here: PEO4 viability); 23.5 µM [falling, partial curve] in assay [2] (setting [7]). Further, the z-score in assay [2] (setting [4]) worked out at 0.526; in assay [2] (setting [5]), 0.982; in assay [2] (setting [6]) it was 0.602.

As for `CNC(=O)c1nn(C)c2c1C(C)(C)Cc1cnc(Nc3ccc(N4CCN(C)CC4)cc3)nc1-2`, the half-maximal activity concentration (AC50) was 0.871 µM [falling, full curve] in assay [1] (setting [3]); 2.75 µM [falling, full curve] in assay [1] (measured here: PEO4 viability); 5.9 µM [falling, partial curve] in assay [2] (setting [8]); 1.18 µM [falling, full curve] in assay [2] (setting [7]). In addition, the z-score in assay [2] (setting [4]) is -1.6; in assay [2] (setting [5]), -1.18; in assay [2] (setting [6]), -0.268.

Turning to `CO[C@H]1C(=O)[C@]2(C)[C@@H](OC)C[C@H]3OC[C@@]3(OC(C)=O)[C@H]2[C@H](OC(=O)c2ccccc2)[C@]2(O)C[C@H](OC(=O)[C@H](O)[C@@H](NC(=O)OC(C)(C)C)c3ccccc3)C(C)=C1C2(C)C`, the AC50 is 0.0098 µM [falling, full curve] in assay [1] (setting [3]); 0.0062 µM [falling, full curve] in assay [1] (measured here: PEO4 viability); 0.00187 µM [rising, full curve, poor fit] in assay [2] (setting [8]). Besides, the z-score in assay [2] (setting [4]) is -2.75; in assay [2] (setting [5]), -1.72; in assay [2] (setting [6]), -2.47.

For the compound `Cc1cc(Nc2cc(NC(=O)c3c(Cl)cccc3Cl)ccn2)nc(N)n1`, the AC50 is 0.347 µM [falling, full curve, poor fit] in assay [1] (setting [3]); 0.174 µM [falling, full curve, poor fit] in assay [1] (measured here: PEO4 viability); 0.662 µM [falling, full curve] in assay [2] (setting [7]). The z-score in assay [2] (setting [4]) is -0.359; in assay [2] (setting [5]), -2.92; in assay [2] (setting [6]) it was -1.43.

Turning to `CN(C)c1ccc(-c2nc3ncc(Cl)c(N4CCN(CC(=O)Nc5nccs5)CC4)c3[nH]2)cc1`, the AC50 in assay [1] (setting [3]) was 12 µM [falling, single point]; in assay [1] (measured here: PEO4 viability), 8.48 µM [falling, partial curve, poor fit]; in assay [2] (setting [8]) it was 2.64 µM [falling, partial curve]. Moreover, the z-score is -0.516 in assay [2] (setting [4]), -0.479 in assay [2] (setting [5]) and 0.855 in assay [2] (setting [6]).

Consider `CCCCC(C)(C)[C@H](O)C=C[C@H]1[C@H](O)CC(=O)[C@H]1CC=CCCCC(=O)O`, for which the AC50 is 11 µM [falling, partial curve] in assay [1] (setting [3]); 24.5 µM [falling, single point] in assay [1] (measured here: PEO4 viability); 16.6 µM [falling, partial curve, poor fit] in assay [2] (setting [7]). The z-score in assay [2] (setting [4]) was 0.975; in assay [2] (setting [5]), 0.403; in assay [2] (setting [6]) it was 0.531.

For the compound `NC(=O)N1CCC(CC(=O)N2CCC([C@H]3c4ncc(Br)cc4CCc4cc(Cl)cc(Br)c43)CC2)CC1`, the AC50 in assay [1] (setting [3]) is 13.8 µM [falling, partial curve]; in assay [1] (measured here: PEO4 viability), 19.5 µM [falling, partial curve]; in assay [2] (setting [8]), 23.5 µM [falling, partial curve]; in assay [2] (setting [7]), 20.9 µM [falling, partial curve]. For the same compound, the z-score in assay [2] (setting [4]) is -0.202; in assay [2] (setting [5]), -0.234; in assay [2] (setting [6]), 0.303.

As to `CCc1nc(-c2cccc(C)c2)c(-c2ccnc(NC(=O)c3ccccc3)c2)s1`, the AC50 was 13.8 µM [falling, single point] in assay [1] (setting [3]); 24.5 µM [falling, single point] in assay [1] (measured here: PEO4 viability); 20.9 µM [falling, single point] in assay [2] (setting [7]). Besides, the z-score in assay [2] (setting [4]) was -0.359; in assay [2] (setting [5]), 0.262; in assay [2] (setting [6]) it was -0.0097.

For the compound `C[C@@H](N)c1ccc(C(=O)Nc2ccnc3[nH]ccc23)cc1`, the AC50 is 15.5 µM [falling, single point] in assay [1] (setting [3]); 15.5 µM [falling, single point] in assay [1] (measured here: PEO4 viability); 23.5 µM [falling, single point] in assay [2] (setting [8]); 23.5 µM [falling, partial curve] in assay [2] (setting [7]). In addition, the z-score in assay [2] (setting [4]) was 1.19; in assay [2] (setting [5]) it was -1.27; in assay [2] (setting [6]), 0.248.

For `COc1cc2c(Oc3ccc4[nH]c(C)cc4c3F)ncnc2cc1OCCCN1CCCC1`, the AC50 in assay [1] (setting [3]) is 19.5 µM [falling, partial curve]; in assay [1] (measured here: PEO4 viability) it was 17.4 µM [falling, partial curve]; in assay [2] (setting [8]) it was 20.9 µM [falling, partial curve]; in assay [2] (setting [7]), 29.6 µM [falling, single point]. The z-score was -0.773 in assay [2] (setting [4]), 0.0578 in assay [2] (setting [5]) and 0.473 in assay [2] (setting [6]).
